The whole screen tested about 420,000 compounds, of which about 50,000 (12%) were called active. Inconclusive means that the source gave no clear call. Such entries were picked first, then a sample of the others. The call rests on the fitted dose curve; in most records, active means well fitted inhibition curve with a large enough effect; inconclusive means small, poorly fitted or top-dose-only effect; inactive means flat fitted curve, though single readings scatter. No potency is given beside an inconclusive call; the fits are too rough.
assay: qHTS for Inhibitors of human tyrosyl-DNA phosphodiesterase 1 (TDP1): qHTS in cells in presence of CPT; conditions: chicken DT40 Tdp1-/-;hTDP1 cells + 20 nM CPT, ATP luminescence, 48 h; series mostly up to 46.2 µM; further: nearly all actives have a fitted effect of over 55% in size
In short: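 Chicken DT40 Tdp1-/- cells complemented with human TDP1, 400 cells/well, exposed to compounds plus 20 nM camptothecin for at least 48 h at 37 C; viability read as ATP content by CellTiter-Glo luminescence.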
Potency means the concentration at half of the fitted maximal effect; tags describe the fitted curve by direction and shape.

Compound | Potency
COc1ccc2c(c1)C(C)=CC(C)(C)N2C(=O)Nc1ccccc1 | inconclusive [inhibitor, single point]
Cc1c(CN2CCC(CO)(CCOc3ccccc3)CC2)[nH]c2ccc(Cl)cc12 | inconclusive [inhibitor, single point]
COc1cccc(CNC(=O)CN2C(=O)N(c3cccc(Cl)c3)S(=O)(=O)c3ccccc32)c1OC | inconclusive [inhibitor, partial curve]
COc1ccc(-c2c(-c3ccccc3)c(C(=O)C(=O)NCCCN(C)C)n3ccc4cc(OC)c(OC)cc4c23)cc1OC | active: 3.26 µM
CN(C)c1ccc(Nc2nc3ccccc3n3nnnc23)cc1 | inconclusive [inhibitor, single point]
COc1ccccc1-c1nn2c(=O)cc(CN3CCN(C(=O)/C=C/c4ccccc4)CC3)nc2s1 | inconclusive [inhibitor, single point]
COc1ccccc1CNC(=O)CSc1ccccc1 | inactive
CCc1ccc(C(O)(CC(C)C)C(CN2CCOCC2)c2ccccc2)cc1 (configuration not stated) | inconclusive [inhibitor, single point]
O=C(NCCc1ccc(F)cc1)C1CCCO1 (configuration not stated) | inactive
CCC1=NN2C(=N)/C(=C/c3c(C)nn(-c4ccccc4)c3Cl)C(=O)N=C2S1 | inconclusive [inhibitor, single point]
COc1ccc(/C=N/OCC(=O)N(Cc2ccc(OC)cc2)c2ccccc2C(=O)O)cc1 | inactive
O=C(OCc1ccccc1)N1CCC2CC1c1cc(-c3ccccc3)ccc12 (configuration not stated) | inconclusive [inhibitor, single point]
CC(CCc1ccccc1)NC(=O)c1cccc(F)c1 (configuration not stated) | inconclusive [inhibitor, single point]
N#C/C(=C\c1ccc(O)c([N+](=O)[O-])c1)c1nc2ccccc2s1 | active: 25.9 µM
COc1ccc(NC(=O)c2cc([N+](=O)[O-])ccc2N2CCCCC2)cc1 | active: 20.6 µM
CCOc1c(O)ccc(/C=C2\SC(=S)NC2=O)c1[N+](=O)[O-] | inactive
O=C(c1ccc(Cl)c(Cl)c1)N1CCC(=O)N([C@H](COCc2ccccc2)Cc2ccccc2)CC1 | active: 20.6 µM
CC1=C(C(=O)Nc2ccc(C)cc2C)C(c2ccc(Br)cc2)n2ncc(C(=O)Nc3cccc(C)c3)c2N1 (configuration not stated) | inactive
Cc1sc(=NC(=O)c2ccco2)n(C)c1-c1ccccc1 | inconclusive [inhibitor, single point]
CN(CCCNC(=O)Cn1cc2c(n1)CCCC2)C1CCCCC1 | inactive
Cc1cc(C)n2nc(SCc3c(F)cccc3Cl)nc2n1 | inconclusive [inhibitor, single point]
O=C(NC1CC1)c1ccc(-c2cnc3cccnn23)cc1 | inconclusive [inhibitor, partial curve, poor fit]
CC1CCc2[nH]c3ccc(C(=O)NCCCOC(C)C)cc3c2C1 (configuration not stated) | inconclusive [inhibitor, single point]
Cc1nn(-c2ccccc2)c(C)c1N | inactive

Compound | Potency
COc1cc(C(=O)c2cc3c(cc2C)OCO3)cc(OC)c1OC | active: 0.0231 µM
CCOC(=O)C1(CCOc2ccccc2)CCN(CC=C(C)C)CC1 | inconclusive [inhibitor, single point]
CCOc1ccc(C(=O)Nc2ccc(N3CCN(C)CC3)cc2)cc1 | inactive
CSCc1ccc(C(=O)NC2CC(C)(C)Cc3c2cnn3-c2ccc(F)cc2)o1 (configuration not stated) | inconclusive [inhibitor, single point]
CC(C)C(=O)n1nc(-c2cccnc2)nc1NCc1cccs1 | inactive
CCOC(=O)c1sc2nc(CSc3ccccc3)[nH]c(=O)c2c1C | inconclusive [inhibitor, single point]
O=C(/C=C/c1ccc(F)cc1)c1ccc(N2CCOCC2)cc1 | active: 20.6 µM
Cc1c(N2C(=O)C(=O)/C(=C(/O)c3ccc(Br)cc3)C2c2cccnc2)c(=O)n(-c2ccccc2)n1C (configuration not stated) | inactive
Cc1ccsc1C(=O)OCC(=O)N(C)C1CCCCC1 | inconclusive [inhibitor, partial curve]
O=C(CSc1nc2c(c(=O)n1-c1ccccc1)SCC2)N1CCOCC1 | inactive
Cc1ccc(C(CC(N)=O)c2ccco2)cc1 (configuration not stated) | inconclusive [inhibitor, single point]
O=C(C[n+]1cc(Br)cc2ccccc21)c1ccccc1 | active: 18.4 µM
CCOc1ccc(NC(=O)Cn2c(=O)n(CCCCC(=O)NCc3ccc4c(c3)OCO4)c(=O)c3ccccc32)cc1 | inconclusive [inhibitor, partial curve]
O=C(CSC1CC(=O)N(CCc2ccccc2)C1=O)Nc1ccc(Br)cc1 (configuration not stated) | inconclusive [inhibitor, single point]
CCCCCn1c(CNC(=O)c2ccccc2)nc2ccccc21 | inconclusive [inhibitor, partial curve]
CCc1ccc(S(=O)(=O)NCc2nc3cccnc3n2Cc2cccc(OC)c2)cc1 | inconclusive [inhibitor, single point]
Cc1ccccc1Cn1c(=O)n(CC2CCC(C(=O)N3CCOCC3)CC2)c(=O)c2sccc21 (configuration not stated) | inconclusive [inhibitor, partial curve]
COc1ccc(/C(N)=N/O)cc1O | inactive
Cc1ccc(-c2ccc(CN3C(CC(C)C)C(=O)N(Cc4cn(CCC5OCCCO5)nn4)CCS3(=O)=O)cc2)cc1 (configuration not stated) | active: 18.4 µM
Cc1noc(C)c1COC(=O)c1ccccc1NC(=O)c1ccco1 | inactive
CCc1c(O)nc(SCC(=O)Nc2ccccc2)n(C(C)CC)c1=O (configuration not stated) | inconclusive [inhibitor, partial curve]
c1ccc(CNc2nc3ccccc3n2CCN2CCOCC2)nc1 | inactive
CN(C)c1cccc2c(C=C(C#N)C#N)ccc(N(C)C)c12 | inconclusive [inhibitor, single point]
